The whole screen tested about 310,000 compounds, of which about 2,200 (0.71%) showed an effect of 50% or more. Effects have a minus sign here. This is one part of the list.
These compounds were tested against human ether-à-go-go-related gene (hERG) potassium channel (human, UniProt Q12809) (assay: primary screen, population patch clamp on CHO cells stably expressing hERG).
Sequence of human ether-à-go-go-related gene (hERG) potassium channel (Q12809 whole entry, looked up): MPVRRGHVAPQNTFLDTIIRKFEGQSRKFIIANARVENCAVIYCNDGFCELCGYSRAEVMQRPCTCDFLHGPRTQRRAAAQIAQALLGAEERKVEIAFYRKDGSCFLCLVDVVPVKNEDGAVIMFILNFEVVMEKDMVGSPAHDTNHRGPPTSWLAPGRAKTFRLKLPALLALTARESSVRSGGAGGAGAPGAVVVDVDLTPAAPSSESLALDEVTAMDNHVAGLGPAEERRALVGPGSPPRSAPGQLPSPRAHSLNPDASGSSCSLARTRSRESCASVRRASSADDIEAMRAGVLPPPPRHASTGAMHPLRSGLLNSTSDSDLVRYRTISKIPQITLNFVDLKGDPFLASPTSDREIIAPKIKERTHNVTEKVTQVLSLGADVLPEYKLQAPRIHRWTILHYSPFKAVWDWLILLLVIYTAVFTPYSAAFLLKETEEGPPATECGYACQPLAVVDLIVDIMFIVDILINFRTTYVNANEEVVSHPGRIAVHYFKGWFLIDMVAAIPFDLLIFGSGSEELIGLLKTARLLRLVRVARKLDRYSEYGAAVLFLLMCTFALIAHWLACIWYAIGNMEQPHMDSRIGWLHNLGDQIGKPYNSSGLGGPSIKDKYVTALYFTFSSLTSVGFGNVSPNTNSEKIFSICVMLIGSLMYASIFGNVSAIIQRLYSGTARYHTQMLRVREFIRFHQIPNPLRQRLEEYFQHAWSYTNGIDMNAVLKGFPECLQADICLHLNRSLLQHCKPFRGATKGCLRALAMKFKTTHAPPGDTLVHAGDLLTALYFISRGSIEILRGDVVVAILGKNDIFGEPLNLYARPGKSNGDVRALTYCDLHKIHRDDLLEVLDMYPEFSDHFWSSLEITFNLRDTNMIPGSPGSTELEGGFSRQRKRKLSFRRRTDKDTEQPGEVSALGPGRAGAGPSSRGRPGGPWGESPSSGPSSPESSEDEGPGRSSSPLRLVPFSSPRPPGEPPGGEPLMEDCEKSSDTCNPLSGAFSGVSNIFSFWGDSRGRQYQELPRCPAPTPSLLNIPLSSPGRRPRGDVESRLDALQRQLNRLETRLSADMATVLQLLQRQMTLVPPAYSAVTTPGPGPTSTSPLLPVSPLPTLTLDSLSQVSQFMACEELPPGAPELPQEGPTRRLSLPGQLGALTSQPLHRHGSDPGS

SMILES	hERG current change (%, negative = inhibition) at 1uM [%]
CCSc1nc2c(c(=O)[nH]c(=O)n2C)n1Cc1ccc(Cl)cc1	13.9
O=C(CCC1CCCCC1)NCc1cccnc1	10.2
CC[N+](CC)(CC)CC.[Cl-]	8.39
Cn1cc(/C=C(\C#N)C(=O)Nc2ncc(Cc3cccc(Cl)c3)s2)c2ccccc21	3.39
COc1cccc(OC)c1OCCCCc1c(C)n[nH]c1C.Cl	6.8
O=C(NN1C(=O)c2ccccc2C1=O)C1CC2CCC1C2 (centres unmarked)	15
CSCc1ccc(C(=O)N2CCC(CCC(=O)N(C)Cc3ccccc3)CC2)o1	-26.1
COc1cccc(-c2cc3nc4c(c(N5CCC6(CC5)OCCO6)n3n2)CCCC4)c1	5.8
CCOC(=O)C1(CC2CCCCO2)CCN(S(=O)(=O)c2ccsc2)CC1 (centres unmarked)	6.56
Cc1cccc(C(=O)O/N=C2/CC3CCC2(C)C3(C)C)c1 (centres unmarked)	1.18
COc1cccc(/C=N/NC(=O)c2ccc(=O)n(C)c2)c1O	16.3
COc1ccc(-c2ccc(-c3noc(C(C)C)n3)c(OC)n2)cc1	13.7
C=CCn1c(SCC(=O)c2cccs2)nc2sc(C)c(C)c2c1=O	10.2
Cc1cc(C(=O)N/N=C/c2ccc(-c3cccc([N+](=O)[O-])c3)o2)n[nH]1	8.12
CCCCNC(=O)/C(C#N)=C/c1ccc(-c2ccc(S(=O)(=O)N3CCOCC3)cc2)o1	9.42
CCCc1cc(N2CCOCC2)n2nc(C)c(-c3ccccc3)c2n1	10.1
Cc1[nH]c2c([N+](=O)[O-])cccc2c1C	8.43
Cc1ccc(OCC(=O)Nc2ccc3oc(=O)ccc3c2)cc1C	6.43
COc1ccc(CN2C(=O)c3ccccc3C2=O)cc1	13.5
O=C(O)c1cccc(-c2noc(-c3cccc(Cl)c3)n2)c1	7.46
S=C(NCCc1c[nH]c2ccccc12)NC1CC1	4.2
COc1ccc(C(=O)c2c3ccccc3[n+]([O-])n2CCC[NH3+])cc1.O=C([O-])C(F)(F)F	-3.47
COc1ccc(Nc2c3c(nc4ccccc24)CCCC3)cc1OC	-78

SMILES	hERG current change (%, negative = inhibition) at 1uM [%]
CC1CCC(NC(=O)c2ccc(NC3=NC4CS(=O)(=O)CC4S3)cc2)CC1 (centres unmarked)	14.6
C=CCn1c(SCC(=O)c2cccs2)nnc1-c1cccc(OC)c1	12.2
O=C(CN1C(=O)c2ccccc2C1=O)NNC1=NS(=O)(=O)c2ccccc21	8.39
Cc1ccc(S(=O)(=O)N(C)Cc2nc(-c3ccc(Br)cc3)no2)cc1	8.05
COC(=O)c1cc(C)sc1NC(=O)c1ccco1	13.5
COc1ccc(C(=O)OCCOc2ccccc2C(C)=O)c(O)c1	15.2
O=C(Nn1c(O)c(C=C2N=c3ccccc3=N2)sc1=S)c1ccccc1	13.6
CCOC(=O)N/N=C\c1ccc(OC(=O)c2ccc3c(c2)OCO3)cc1	7.59
COc1ccc2oc(C(=O)Nc3nnc(C)s3)c(C)c2c1	-0.337
COc1ccc(OC)c(S(=O)(=O)N2CCN(c3ccccc3OC)CC2)c1	6.97
O=C(CCl)Nc1cn(-c2ccccc2)nc1-c1ccc(F)cc1	0.571
Cc1ccc(Nc2nc(NCCCN3CCOCC3)nc(N)c2[N+](=O)[O-])cc1C	4.15
Cc1ccc2c(c1)n([O-])c1c([n+]2=O)CCCC1	11
NC(=O)CC(NC(=O)c1ccccc1)c1ccc(NCc2ccc(F)cc2)c([N+](=O)[O-])c1 (centres unmarked)	-14.3
N#CC1CC(c2ccccc2)Nc2cc(Cl)ccc2N1 (centres unmarked)	-1.46
O=C1N(CN2CCN(c3cccc(Cl)c3)CC2)c2ccccc2C12OCCCO2	4.08
CCOC(=O)C1CCN(S(=O)(=O)c2ccc3c(c2)NC(=O)CS3)CC1	-6.03
Cc1cc(C(F)(F)F)nn1CC(=O)Nc1cccnc1	11.6
CCC1(C)Cc2ccccc2C(Nc2c(C)n(C)n(-c3ccccc3)c2=O)=N1 (centres unmarked)	13.1
CCCCCCOc1ccc(C(CC(=O)NC)C(=O)O)cc1 (centres unmarked)	7.29
COC(=O)c1ccc(C2Nc3ccc(/C(C)=N/NC(=O)C(OC)c4ccccc4)cc3C3C=CCC32)cc1 (centres unmarked)	-23.3
O=C(Nc1ccc(N2CCOCC2)c(Cl)c1)c1c(F)c(F)c(F)c(F)c1F	-10.1
Nc1ncnc(NCc2ccccc2)c1[N+](=O)[O-]	13

SMILES	hERG current change (%, negative = inhibition) at 1uM [%]
O=C(Nc1ccc(Cl)cc1Cl)N1CCN(c2ncccn2)CC1	0.422
CCCCSCCCNC(=O)C1CCC(CNS(=O)(=O)c2ccc(NC(C)=O)cc2)CC1 (centres unmarked)	14.1
COc1ccc(C(=O)C2CCCN(Cc3ccc4nonc4c3)C2)cc1OC (centres unmarked)	-11
COC(=O)CCC(=O)NC(=S)Nc1cc(Cl)ccc1Cl	12.5
COc1ccc(C(=O)CSC2=C(C#N)C3(CCCCC3)C(C#N)=C(N)N2)cc1	8.88
Cc1cc(C(=O)Nc2ccc(C(=O)O)cc2)c(C)o1	11.7
CCO[C@H]1OC(C(=O)N2CCN(Cc3ccc4c(c3)OCO4)CC2)=C[C@@H](c2ccc(Br)cc2)[C@@H]1CCCO	4.66
O=C(NCCC1CCCCN1S(=O)(=O)c1ccc(F)cc1)C(=O)NC1CCCC1 (centres unmarked)	2.04
Cc1c(Cl)cccc1NC(=O)CS(=O)(=O)c1ccccc1	12.2
COc1ccc2nc(SCC(=O)Nc3ccc4c(c3)OCCO4)[nH]c2c1	-11
CCn1c(SCC(=O)NCc2cccs2)nnc1-c1ccco1	14.2
CC(C#Cc1c([C@@H](C)Oc2ccccc2)nnn1Cc1ccccc1)Oc1ccccc1 (some centres unmarked)	14.3
Cc1nc2ccccc2nc1OCc1cccc(Cl)c1	8.53
CC(C)(C)c1cc(CCC(=O)NCc2cccnc2)cc(C(C)(C)C)c1O	14.2
O=C(C(=O)N1CCN(Cc2ccc3c(c2)OCO3)CC1)c1c[nH]c2ccccc12	11.7
CCc1ccccc1NC(=O)c1ccc([N+](=O)[O-])s1	0.861
COc1ccc(-c2[nH]ncc2CNCc2cc(C)n(C)n2)c(F)c1	5.74
CC1(C)NC(=O)N(CC(O)CN2C(=O)CCC2=O)C1=O (centres unmarked)	1.23
O=C(c1ccc2c(c1)OCO2)C1CCCN(C(=O)NCc2ccccc2)C1 (centres unmarked)	8.12
CS(=O)(=O)N(CC(=O)NC1CCCCCC1)Cc1ccc(Cl)cc1	-0.622
CCC1Oc2ccc(C)cc2N(CC(=O)N(Cc2cccnc2)Cc2cccc(F)c2)C1=O (centres unmarked)	12.3
Cn1c(O)c(/C=N/N2CCOCC2)c(=O)[nH]c1=S	13.9
On1cnnc1-c1ccccc1	8.21

SMILES	hERG current change (%, negative = inhibition) at 1uM [%]
S=c1nc(Cc2ccc(Cl)cc2)[nH]c2ccccc12	17.6
C/C(N)=C(/C#N)C(=O)CSc1nc2cc(Cl)ccc2c(=O)n1-c1ccc(C)cc1	12.5
Clc1ccccc1CNc1ncnc2nc[nH]c12	11.1
O=C(CCS(=O)(=O)c1ccccc1)NC1CCCCC1	18.8
COc1ccccc1OCCSc1nc2ccccc2n1CCO	17.3
COc1ccc(C)cc1N(C(=O)c1ccco1)C(C(=O)NC1CCCC1)c1cc(OC)c(OC)c(OC)c1 (centres unmarked)	3.94
Cc1ccc(S(=O)(=O)N2CCC(C(=O)OCC(=O)N3CCc4ccccc43)CC2)cc1	-9.78
CCCCn1c(/N=C/c2ccccc2NS(=O)(=O)c2ccc(C)cc2)nc2ccccc21	0.0382
CCOc1ccc(N2CC(C(=O)Nc3cccc(C)c3C)CC2=O)cc1 (centres unmarked)	10.6
COc1ccc2c(c1)OC(O)(C(F)(F)C(F)F)CC2=O (centres unmarked)	-1.89
CC(C)C(=O)N1CCN(c2ccc(NC(=O)COc3ccccc3[N+](=O)[O-])cc2)CC1	-2.41
COc1ccc(-c2nc3ccc(N4CCCC4)cc3c(=O)[nH]2)cc1OC	9.23
COc1ccc(NC(=O)Nc2nnc(-c3ccccc3F)s2)cc1	17.7
Cc1cc(/C=N/O)c(C)n1-c1cccc(Cl)c1	-0.795
COC(=O)C1=C(c2c(C)noc2C)C[C@@H]2CC[C@H]1N2C(=O)NCc1ccc2c(c1)OCO2	-1.92
COC(=O)c1cccc(C(=O)N2CCC(CCC(=O)NCc3ccc(F)cc3)CC2)c1	6.1
COc1ccc(CCNC(=O)C2CCN(S(=O)(=O)c3cnc[nH]3)CC2)cc1OC	12.2
Cc1ccc(CNC(=O)CN(C2CCCCC2)S(C)(=O)=O)cc1	5.75
S=C1NC2=C(CCCC2=C2SCCCS2)C(c2ccccc2)N1 (centres unmarked)	18
COc1ccc(-c2cc(-n3c(C(F)(F)F)nc4ccccc43)n(CCC#N)n2)cc1	9.09
